Values marked as one replicate rest on one cluster of the flow cell; about a third of the high ones do not repeat.
Test system: ATP
Assay: switch fluorescence ratio, 500 uM ATP over buffer (Cy3 cluster intensity, sum of 5 cycles each) (fold (ratio)); higher = stronger signal-on switching upon ATP binding; sequences stand for … in TCGTCGGCAGCGTCAGATGTGTATAAGAGACAGTTTTTTTTTTTTTTTTTTTTTTTTT…TC
Details: aptamer strand: ATP DNA aptamer (quencher-CACCTGGGGGAGTATTGCGGAGGAAGG + anchor), 100 nM annealed; ATP concentration: 500 uM; one replicate
Summary of the method: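 Imaging in selection buffer was followed by imaging after 15 min with 500 uM ATP at 22 °C, for Cy3-labelled switching-strand clusters annealed to 100 nM quencher-labelled ATP aptamer on a modified Illumina MiSeq flow-cell. Five of these buffer/ATP cycles ran, separated by NaOH stripping and re-annealing. The fluorescence ratio per cluster is summed target-cycle over summed buffer-cycle Cy3 intensity, averaged per switch-domain sequence; clusters outside 100-1000 RFU were removed.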
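Further: ATP exposure 15 min at 22 °C before imaging.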

| Sequence | switch fluorescence ratio |
| --- | --- |
| GCCGGTAGCA | 1.03 |
| GGAGAGGTCG | 1.05 |
| GTCTTTTAAC | 0.949 |
| GCGGGTCTTT | 1.03 |
| TTACGTAGTG | 0.951 |
| ACGCTGGG | 1.17 |
| CGGTACTGGT | 1.01 |
| AATAAGTGAG | 1.08 |
| CCCCGTCGGA | 1.06 |
| GCATGATTGC | 0.994 |
| GGTACGAAG | 0.961 |
| AATTTACTAG | 1.05 |
| TGTCGGGGC | 1.05 |
| ATCTGGCAAC | 1.17 |
| GCATGTGTAA | 1.01 |
| CTTGAGGCT | 1.02 |
| CGCATGGTTT | 1.08 |
| TGACTCAGAG | 1.03 |
| GCTAGCTATT | 1.07 |
| ATAAGAAGGG | 0.968 |
| CGATCTTCAA | 1.02 |
| GCCGATACTT | 1.04 |
| AGCTCTCTGT | 1.03 |

| Sequence | switch fluorescence ratio |
| --- | --- |
| GGATTTTTAA | 0.987 |
| AAGTCTGGGA | 0.957 |
| TCGAAATCCA | 1.03 |
| GGCAGTAACT | 1.03 |
| GATTTTTGCT | 0.938 |
| GAATAGAGTC | 0.999 |
| TCTATCCGCT | 1.58 |
| AGGAAATGCG | 0.981 |
| ACATGCCAAG | 1.05 |
| TTAAGACCCA | 1.04 |
| TTCAACCCCA | 1.05 |
| GTATGACAAA | 1.02 |
| TTACGTACGG | 1.62 |
| AAGAAGATAG | 1.03 |
| TGCCAAAAGA | 0.97 |
| ATGGTTCTGA | 0.997 |
| TCTTTTCTAA | 1 |
| CCCCTGACC | 1.15 |
| AAACCAACGG | 1.08 |
| TAGCTACC | 1.07 |
| CGCCATAGT | 1.35 |
| ACTGAGTTTT | 1.03 |
| GCACACCCTT | 1.19 |

| Sequence | switch fluorescence ratio |
| --- | --- |
| GACTCTT | 1.04 |
| TGCGTTGTAG | 0.997 |
| TGTATTGGGT | 1.11 |
| TTCGCACTCT | 1.27 |
| CGTACGTGCG | 0.997 |
| ACGAATTTAA | 1.04 |
| TGTTTTCATA | 1.02 |
| CAAGAGCCAC | 1.04 |
| TAGATGCATA | 1.01 |
| TGGGTTTGT | 1.04 |
| AGCTTTAGCA | 1.01 |
| AGATACCATG | 1.01 |
| ATCACAGTCT | 1.07 |
| GAAATAGTCT | 0.994 |
| CGTTGAGCGT | 1 |
| TTGAGCTTGC | 1.06 |
| TCAGACGCG | 0.969 |
| TAAAAAGCCC | 1.04 |
| TGCTAGATCC | 0.976 |
| CAGTACCTAT | 1.06 |
| TAGTCCAAA | 0.981 |
| TGACGCCGGT | 1.05 |
| GTGCGACTAG | 0.986 |

| Sequence | switch fluorescence ratio |
| --- | --- |
| TTTTGGACGT | 0.975 |
| ACAAGAGACC | 1.05 |
| GAAATGGGCA | 1.01 |
| AATATGTTAT | 0.99 |
| TCAGTCAAAT | 0.959 |
| ACTTGTGTCC | 0.997 |
| TCGGTACGCC | 0.978 |
| CAGCACGATG | 0.989 |
| TTAGCGTTGG | 0.988 |
| GTCAGGGCCG | 1.1 |
| AGGTCCGTCG | 1.04 |
| TGCCCTGACA | 1.04 |
| AGGGAGTGG | 0.967 |
| TTCGTTTAAA | 1.02 |
| ACTTTTCTGC | 1.03 |
| CGGTAAAGTC | 0.988 |
| TGTGACTGCT | 0.978 |
| TAAAGCTGGG | 0.997 |
| TTTGACATAG | 1.02 |
| GGTAGAAGCC | 0.977 |
| TATTGTCAGC | 1 |
| GAGGATAAAT | 1.01 |
| GTTCTTCCTG | 1.03 |

| Sequence | switch fluorescence ratio |
| --- | --- |
| CAGCGTTGGC | 1.01 |
| GTGTCAGCTT | 1.01 |
| ACATGCTTTG | 1.04 |
| CGATCCATGC | 1.39 |
| GGATGAGAA | 1.01 |
| GGAGAGTCAC | 0.967 |
| ATGGAACATT | 0.995 |
| GTTCTAGAGT | 1.05 |
| TGTGGTCCCT | 0.972 |
| TAGGTGTCCC | 1.02 |
| GACAGAGACT | 1.01 |
| GCTTTATCAG | 0.966 |
| ATTCTAAAAC | 1.02 |
| ATTCACACTA | 1.09 |
| AGATGAGGAT | 0.99 |
| CGCCATATTA | 0.973 |
| CTGATGTTTG | 1.05 |
| CGGAAACCTC | 1.04 |
| GATGAGGGAG | 0.986 |
| GTTGGATCA | 1.01 |
| GTAATGGGCG | 1.05 |
| CGCGTGTAGG | 0.972 |
| GAAAGTTCTT | 1.03 |

| Sequence | switch fluorescence ratio |
| --- | --- |
| TTCTGTACGC | 1.4 |
| TCTTTATCGG | 0.985 |
| CCACTTTCGA | 1.04 |
| TCTATCCGGT | 1.01 |
| ATCATGTAAG | 1.02 |
| TACTGATGTC | 1.08 |
| TAGAGAGTCG | 1.01 |
| CCACGGAGT | 1 |
| CGGTTGTAG | 0.963 |
| ATAAGTCGGT | 1 |
| TGGGCCGGGC | 0.987 |
| CCTAAGGAAT | 1.17 |
| GCGTGCTGTT | 0.986 |
| GCGATTTGCG | 0.988 |
| GGCTCTCTTA | 0.988 |
| GTTCGGGATG | 1 |
| GGTTGCACAT | 0.978 |
| TCCATGGCAG | 1.11 |
| TGACCCCTGC | 1.19 |
| GGGAAAACG | 1.03 |
| GTCACAGTC | 0.956 |
| GCAGCTTTGC | 1.06 |
| TACGAGTGGG | 0.998 |

| Sequence | switch fluorescence ratio |
| --- | --- |
| GGATCTCGAC | 1.05 |
| TCAGAAAAT | 0.973 |
| ACATTGGGTG | 1.08 |
| ACATACTTGA | 1.13 |
| GTATTCGGTC | 0.987 |
| CCTCTCGTA | 1.78 |
| GGTGTTTTGT | 1.03 |
| ATATTAAGGA | 0.984 |
| TAACTTACAG | 1.14 |
| TGGTGTGAT | 1.03 |
| CGTTGATTG | 0.956 |
| CTGTGTGTTG | 0.994 |
| GCGATAGTGA | 1 |
| GGCCATAGGG | 0.997 |
| CTGTCATAGT | 0.998 |
| GACAGCATGC | 1.24 |
| CCGTGGAAAA | 3.79 |
| GTCATTGGGG | 0.983 |
| TCCTTCGTGC | 1.02 |
| TTTTTTTAC | 1.01 |

— the supplement of paper PMC10126150
